The structures appear in SMILES notation. Where “and” joins values, the source holds several entries; their conditions need not be identical. Equal values may be shown once. The list shows a part of the results. Shown are side measurements of this screen, not its main read-out; they come without a call. Compounds called inactive in the main read-out are mostly missing here. For part of these data: Potencies come from curve fits of mixed quality, noted in brackets.

Consider 19 compounds from PubChem BioAssay (NCATS).

Test [1] is described as follows: qHTS Assay for Lipid Storage Modulators (AID 1519). The settings on record: Drosophila S3 cells, BODIPY lipid droplet/cell ratio, laser cytometry, cells loaded with oleic acid. Put shortly:
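Cells seeded at 5,000 per well were treated with compounds over a concentration series and loaded with oleic acid (400 uM, as added). Lipid droplet fluorescence (488 nm excitation, 500-530 nm channel) was read by laser-scanning cytometry and normalized to 20 uM Triacsin C.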

Test [2] in a line: qHTS assay for small molecule antagonists of peroxisome proliferator-activated receptor delta signaling (AID 588535).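 Also: cells co-treated with a PPAR-delta agonist as stimulator during compound exposure.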 The conditions noted are these: HEK293T PPARd-UAS-bla, beta-lactamase FRET ratio, 18 h; 460 nm channel. In a few lines:
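Beta-lactamase reporter read-out (405 nm excitation, 460/530 nm emission) after CCF4 loading for 2 hrs at RT. HEK293T PPAR-delta-UAS-bla cells, 2% charcoal/dextran FBS, compounds for 18 hrs at 37 C. Hill fit gave IC50 and efficacy.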

A short description of test [3]: qHTS assay for small molecule antagonists of peroxisome proliferator-activated receptor gamma signaling (AID 588537). The conditions noted are these: HEK293 PPARg-UAS-bla, beta-lactamase ratio, antagonist mode; measured here: W460 blue channel. Put shortly: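 Read-out: CCF4 fluorescence (ex 405, em 460/530 nm) after 2 h at RT. Cells were HEK293 carrying a UAS-bla reporter and treated 16 h at 37 C with compound plus rosiglitazone (50 nM final). Normalized to rosiglitazone and DMSO.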

The nature of test [4]: qHTS Validation Assay to Find Inhibitors of Chronic Active B-Cell Receptor Signaling (AID 485345). The settings on record: ABC-DLBCL cells, chronic BCR signaling reporter; measured here: CBR control luciferase (viability counter). In a few lines:
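TMD8 ABC-DLBCL cells stably carrying doxycycline-inducible IkappaBalpha–green luciferase fusion plus unfused red luciferase; compounds 46 uM to 3 nM, 4 h at 37C with doxycycline. Corrected green/red luminescence ratio normalized to 10 uM MG-132 and basal cell wells; curves fitted.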
(In general: Quantitative high-throughput screening tests each substance at several concentrations.)

Test [5] in a line: qHTS assay for small molecule agonists of retinoid X receptor alpha signaling (AID 588544). The settings on record: HEK293T RXRa-UAS-bla, beta-lactamase reporter, 18 h; 530 nm emission.
A short description of test [6]: qHTS assay for small molecule antagonists of retinoid X receptor alpha signaling (AID 588546).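 Also: cells stimulated with 9-cis-retinoic acid as agonist; % is scaled to controls: 0 for no effect and ±100 for the full control effect.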 The settings on record: HEK293T RXRa-UAS-bla, beta-lactamase ratio, antagonist mode; measured here: W530 green channel, cytotoxicity proxy. In a few lines: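 Beta-lactamase reporter inhibition, read as CCF4 fluorescence ratio (ex 405, em 460/530 nm) after 2 h at RT. HEK293T UAS-bla cells, 2500/well, were stimulated with 9-cis-RA at 500 or 100 nM final alongside test compound for 18 h at 37 C.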

Test [7] in a line: qHTS assay for small molecule antagonists of vitamin D receptor signaling (AID 588541). The settings on record: HEK293T VDR-UAS-bla, beta-lactamase ratio, antagonist mode; measured here: W460 blue channel (cell viability).
Test [8] is described as follows: qHTS Assay for Modulators of Human Peripheral Myelin Protein 22 (PMP22) Expression/Activity (AID 1967). The conditions noted are these: Cell-based PMP22 reporter, dual-color luciferase ratio. In a few lines: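 Quantitative HTS in a mouse Schwann cell line expressing dual click beetle luciferases: Pmp22 promoter (green) and control EF-alpha promoter (red). After 24h treatment, corrected green/red signal ratio gave %Activity relative to untreated cells.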

Test [9] is described as follows: S16 Schwann cell PMP22 intronic element beta-lactamase assay (AID 624044). Also: nearly all actives have a fitted effect of over 15% in size. The conditions noted are these: S16 rat Schwann cells, PMP22 element beta-lactamase FRET, 24 h; measured here: 460 nm blue channel. In a few lines:
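Beta-lactamase reporter under a PMP22 intronic regulatory element in stable S16 rat Schwann cells; 24 h compound exposure. 460 nm blue signal normalized between DMSO (0%) and potassium clavulanate, with 535 nm FRET tracking viability; curves classed by r2 and response.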

Test [10] in a line: qHTS Assay for Inhibitors of PDE-IV (AID 607).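 Also: parental cells stimulated with forskolin 10 µM plus RO 20-1724 100 µM.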 The conditions noted are these: HEK293 ACTOne CNG channel cells, membrane potential fluorescence; measured here: parental cell counter-screen. In a few lines: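 The readout is membrane depolarisation from a cAMP-sensing CNG channel, detected with a potential dye at ex 535/em 590. Cells were HEK293-derived (endogenous PDE-IV) at 1000 cells/well, titrated up to 22.9 uM final.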

[11] abbreviates: measured here: cell count channel max response.
Where [12] appears, read: measured here: lipid (BODIPY) channel AC50.
[13] abbreviates: measured here: lipid channel max response.
Where [14] appears, read: measured here: cell number channel AC50.
The mark [15] stands for this setting: measured here: green reporter channel AC50, mouse Pmp22 promoter in mouse Schwann cells.
Setting [16] is: measured here: red reporter channel AC50, EF-alpha promoter control reporter in MSC80 mouse Schwann cells.
Tags tell the direction and shape of the fitted curve.

As to `CCCNC(=O)NS(=O)(=O)c1ccc(Cl)cc1`, the max response in [1] (setting [11]) was 18.2% and 26%; in test [1] (setting [13]), 32% and 25.5%; in test [2], 14.1%. The AC50 – broadly, the midpoint of the concentration-response curve, whichever way the signal moves – in [1] (setting [12]) is 39.8 µM [rising, single point]; in test [3] it was 50.1 µM [rising, single point].

With `CC1C(=O)N(C)C(=O)c2nc[nH]c21` (configuration not stated), the max response is -39.3% in test [1] (setting [11]) and -41.7% in test [1] (setting [13]). For the same compound, the AC50 was 1.58 µM [falling, full curve, poor fit] in [1] (setting [14]) and 23.1 µM [falling, single point] in [4].

For the compound `N[C@@H](Cc1ccccc1)C(=O)O`, the max response in [1] (setting [11]) turned out to be 25.5%; in [1] (setting [13]), 31.1%. The AC50 is 35.5 µM [rising, single point] in test [1] (setting [12]) and 0.00141 µM [falling, full curve, poor fit] in test [3].

In the case of `O=c1ccc2ccccc2o1`, the max response in test [1] (setting [11]) came to 23.5%; in test [1] (setting [13]) it was 39%; in test [5], 10.1%. The AC50 in test [1] (setting [12]) is 35.5 µM [rising, single point]; in test [3] it was 50.1 µM [rising, single point].

With `O=c1c(O)c(-c2ccc(O)cc2O)oc2cc(O)cc(O)c12`, the max response in test [1] (setting [11]) is 42.3% and 6.24%; in test [1] (setting [13]), 26.5% and 25.8%; in [5] it was 63.7%; in test [6] it was 43.2%. The AC50 in test [1] (setting [12]) was 0.0224 µM [rising, full curve, poor fit].

`COc1cc(C=O)ccc1O`: the results for the max response in test [1] (setting [11]), in [1] (setting [13]) and in test [5] were 9.31%, 10.7% and 7.64%, respectively. The AC50 in [1] (setting [12]) is 14.1 µM [rising, partial curve, poor fit]; in test [7], 0.282 µM [rising, full curve, poor fit].

Regarding `CC(C)=CCC/C(C)=C/CC/C(C)=C/CO`, the max response in test [1] (setting [11]) was 24.7% and 19.4%; in test [1] (setting [13]) it was 32.5% and 32.8%; in test [5], -14.9%. In test [1] (setting [12]), the AC50 was 35.5 µM [rising, partial curve] and 12.6 µM [rising, full curve, poor fit].

With `CC(=O)OCC(COC(C)=O)OC(C)=O`, the max response in test [1] (setting [11]) was 17.3%; in [1] (setting [13]) it was 34.5%; in test [6] it was -9.2%. Further, in test [1] (setting [12]), the AC50 is 39.8 µM [rising, single point].

On to `Cc1cc(=O)[nH]c(=S)[nH]1`, for which the max response in [1] (setting [11]) amounted to 17.4%; in [1] (setting [13]), 37.9%; in test [2], 184%. For the same compound, the AC50 in test [1] (setting [12]) is 25.1 µM [rising, partial curve, poor fit].

For the compound `COc1ccc(CCN(C)CCCC(C#N)(c2cc(OC)c(OC)c(OC)c2)C(C)C)cc1OC` (configuration not stated), the max response in test [1] (setting [11]) is 58%; in test [1] (setting [13]), 57.1%. Further, the AC50 in [1] (setting [12]) is 15.8 µM [falling, single point]; in test [8] (setting [15]), 84.9 µM [falling, single point]; in test [8] (setting [16]), 84.9 µM [falling, single point]; in test [9], 25.1 µM [falling, partial curve, poor fit].

Turning to `O=C(O)CCC(=O)c1ccc(-c2ccccc2)cc1`, the AC50 in [10] was 2 µM [rising, partial curve, poor fit]; in [1] (setting [14]), 12.6 µM [rising, partial curve, poor fit]. For the same compound, the figures for the max response in test [1] (setting [11]) and in test [1] (setting [13]) were 33.1% and 55.2%, respectively.

For the compound `COC(=O)c1c(-c2cc(OC)c(OC)c(OC)c2)c2ccc(OCc3ccccn3)cc2c(=O)n1-c1ccc(N)cc1`, the max response in test [1] (setting [11]) turned out to be 48.3%; in [1] (setting [13]), 42.9%. For the same compound, the AC50 in test [1] (setting [14]) is 11.2 µM [rising, partial curve, poor fit]; in test [8] (setting [15]), 84.9 µM [falling, single point]; in test [8] (setting [16]), 95.3 µM [falling, single point].

With `Cc1cc(C)c(NC(=O)C[C@H](CC(=O)O)c2cccc3ccccc23)c(C(=O)N2CCC3(CCCC3)CC2)c1`, the max response in [1] (setting [11]) turned out to be 72%; in [1] (setting [13]), 74.7%. For the same compound, the AC50 in [1] (setting [14]) is 39.8 µM [rising, partial curve, poor fit]; in [8] (setting [16]), 95.3 µM [falling, single point]; in [9], 7.94 µM [falling, partial curve, poor fit].

As to `CN1Cc2c(N)cccc2C(c2ccccc2)C1` (configuration not stated), the max response was 15.8% in [1] (setting [11]) and 31% in [1] (setting [13]). Besides, the AC50 in test [1] (setting [12]) is 10 µM [rising, partial curve, poor fit]; in test [8] (setting [15]), 53.6 µM [falling, partial curve, poor fit]; in [8] (setting [16]) it was 67.5 µM [falling, partial curve, poor fit].

As for `O=C(/C=C/C=C/c1ccc2c(c1)OCO2)N1CCCCC1`, the max response in test [1] (setting [11]) is 22.9%; in test [1] (setting [13]), 48.4%; in test [5], 18.3%; in test [6], -0.248%. For the same compound, the AC50 in test [1] (setting [12]) was 1.12 µM [rising, full curve, poor fit]; in test [3], 44.7 µM [falling, single point].

For the compound `Cc1nc2cnc(OCc3ccccc3)nc2n(CCc2ccccc2)c1=O`, the half-maximal activity concentration (AC50) is 12.6 µM [rising, partial curve] in [10] and 2.51 µM [rising, partial curve, poor fit] in test [1] (setting [12]). Also, the max response came to 9.14% in [1] (setting [11]) and 10% in [1] (setting [13]).

On to `CC(C[N+](C)(C)C)OC(N)=O` (configuration not stated), for which the max response is 28.9% in [1] (setting [11]) and 53.4% in test [1] (setting [13]). Also, the AC50 in [1] (setting [12]) was 25.1 µM [rising, single point]; in test [9], 0.398 µM [falling, full curve, poor fit].

Take `Cc1ccccc1-c1ccc2ncnc(NCc3cccnc3)c2c1`: the AC50 in test [10] is 10 µM [rising, partial curve]; in [1] (setting [14]), 3.55 µM [rising, single point]. In addition, the max response in [1] (setting [11]) turned out to be 11.2%; in test [1] (setting [13]), 10.2%.

For `O=C(c1ccco1)N1CCC2(CCN(Cc3cc(C(F)(F)F)cc(C(F)(F)F)c3)CC2)CC1`, the AC50 is 12.6 µM [rising, single point] in test [10] and 0.562 µM [rising, full curve, poor fit] in test [1] (setting [12]). Further, the max response came out at 8.3% in test [1] (setting [11]) and 15.1% in test [1] (setting [13]).
